Where a name gives a salt, the structure may show the parent alone. ± gives the standard deviation of the averaged measurements. The list shows a part of the results. Where a SMILES comes first, the peptide text is derived from it.

Conditions in all cases: priming compound concentration 100 µM
The test system of assay [1] is hAMSC donor 1. As to the kind of experiment: Hoechst total cell count ratio vs vehicle control; higher = more cells (less toxicity).
The subject of assay [2] is hAMSC donor 2. The description is as above.
For assay [3], the system named is hAMSC donor 1. As to the kind of experiment: transgenic luciferase activity (RLU/mg protein) fold change vs vehicle control (ratio); higher = more transgene expression.
Assay [4] concerns hAMSC donor 2. Described as above.
The subject of assay [5] is hAMSC donor 1. As to the kind of experiment: transfection efficiency (EGFP+ cells / Hoechst count) fold change vs vehicle control (ratio); hAMSC are human adipose-derived mesenchymal stem cells given an EGFP-luciferase plasmid by lipofection; higher = enhanced transfection.
In assay [6] the test system is hAMSC donor 2. The description is as above.
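Throughout, for Hoechst total cell count ratio vs vehicle control: compound added 30 min before Lipofectamine 3000 lipoplex delivery, triplicate-well means expressed against DMSO vehicle control wells of the same 96-well plate.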
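Throughout, for transfection efficiency (EGFP+ cells / Hoechst count) fold change vs vehicle control: compounds added 30 min before Lipofectamine 3000 lipoplex transfection, triplicate means relative to DMSO vehicle wells on the same plate, luciferase RLU normalized to BCA total protein.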
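Throughout, for transgenic luciferase activity (RLU/mg protein) fold change vs vehicle control: compounds in DMSO added 30 min before Lipofectamine 3000 transfection of pEGFP-Luc in 96-well plates, values are means of triplicate wells over DMSO vehicle wells on the same plate.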

For `OC(Cn1cncn1)(Cn1cncn1)c1ccc(F)cc1F` [Fluconazole], the “Hoechst total cell count ratio” value in assay [1] turned out to be 0.865 ± 0.013; in assay [2] it was 1.02 ± 0.19. The transgenic luciferase activity is 1.24 ± 0.77 in assay [3] and 0.594 ± 0.027 in assay [4]. In addition, the transfection efficiency is 1.02 ± 0.23 in assay [5] and 0.784 ± 0.21 in assay [6].

Consider `CC[C@H]1OC(=O)[C@H](C)[C@@H](O[C@H]2C[C@@](C)(OC)[C@@H](O)[C@H](C)O2)[C@H](C)[C@@H](O[C@@H]2O[C@H](C)C[C@H](N(C)C)[C@H]2O)[C@](C)(OC)C[C@@H](C)C(=O)[C@H](C)[C@@H](O)[C@]1(C)O` [Clarithromycin], for which the “Hoechst total cell count ratio” value stood at 0.841 ± 0.053 in assay [1] and 0.775 ± 0.08 in assay [2]. The transgenic luciferase activity amounted to 1.13 ± 0.54 in assay [3] and 0.591 ± 0.15 in assay [4]. Also, the transfection efficiency in assay [5] stood at 0.938 ± 0.24; in assay [6], 0.576 ± 0.17.

`C[C@@H](O)[C@H]1C(=O)N2C(C(=O)O)=C(S[C@@H]3CN[C@H](C(=O)N(C)C)C3)[C@H](C)[C@H]12` [Meropenem]: the “Hoechst total cell count ratio” value in assay [1] came out at 1.36 ± 0.27; in assay [2] it was 1.26 ± 0.044. Also, the transgenic luciferase activity in assay [3] was found to be 1.71 ± 0.81; in assay [4], 0.775 ± 0.026. Also, the results for the transfection efficiency in assay [5] and in assay [6] were 1.16 ± 0.19 and 0.637 ± 0.15, respectively.

Take `CC(=O)CCCCn1cnc2c1c(=O)n(C)c(=O)n2C` [Lomifylline]: the “Hoechst total cell count ratio” value in assay [1] was found to be 1.19 ± 0.028; in assay [2], 1.38 ± 0.18. In addition, the transgenic luciferase activity in assay [3] was found to be 1.1 ± 0.58; in assay [4] it was 1.05 ± 0.63. The figures for the transfection efficiency in assay [5] and in assay [6] were 0.924 ± 0.36 and 1.44 ± 0.32, respectively.

As for `CCOC(=O)c1ncn2c1CN(C)C(=O)c1cc(F)ccc1-2` [Flumazenil], the “Hoechst total cell count ratio” value was found to be 1.17 ± 0.12 in assay [1] and 0.672 ± 0.15 in assay [2]. The transgenic luciferase activity in assay [3] was determined as 0.625 ± 0.17; in assay [4] it was 0.748 ± 0.33. The transfection efficiency in assay [5] came out at 0.894 ± 0.34; in assay [6], 1.4 ± 0.24.

As for `O=C1CC[C@@H](C(=O)N2CSC[C@H]2C(=O)O)N1` [Pidotimod] (HELM PEPTIDE1{[Glp].[O=C(O)[C@@H]1CSCN1[*:1]]}$$$$V2.0), the results for the “Hoechst total cell count ratio” value in assay [1] and in assay [2] were 1.37 ± 0.21 and 1.19 ± 0.015, respectively. Further, the transgenic luciferase activity in assay [3] worked out at 1.5 ± 0.17; in assay [4], 1.12 ± 0.075. Further, the transfection efficiency in assay [5] came out at 1.24 ± 0.41; in assay [6] it was 0.853 ± 0.25.

Turning to `N=C(N)NC(=O)c1nc(Cl)c(N)nc1N` [Amiloride hydrochloride hydrate], the “Hoechst total cell count ratio” value in assay [1] was determined as 1.61 ± 0.21; in assay [2], 1.07 ± 0.15. In addition, the transgenic luciferase activity was found to be 1.14 ± 0.44 in assay [3] and 0.64 ± 0.085 in assay [4]. In addition, the transfection efficiency in assay [5] was found to be 1.19 ± 0.37; in assay [6], 1.27 ± 0.13.

In the case of `O=C1c2c(O)cc(O)cc2O[C@H](c2ccc(O)c(O)c2)[C@H]1O` [Taxifolin-(+)], the entries for the “Hoechst total cell count ratio” value in assay [1] and in assay [2] were 1.29 ± 0.11 and 0.917 ± 0.086, respectively. Besides, the transgenic luciferase activity in assay [3] turned out to be 2.67 ± 0.73; in assay [4], 0.212 ± 0.07. Further, the values for the transfection efficiency in assay [5] and in assay [6] were 1.46 ± 0.6 and 1 ± 0.22, respectively.

Regarding `COC1=C(OC)C(=O)C(CCCCCCCCCCO)=C(C)C1=O` [Idebenone], the “Hoechst total cell count ratio” value stood at 0.704 ± 0.097 in assay [1] and 0.549 ± 0.063 in assay [2]. Moreover, the transgenic luciferase activity in assay [3] was found to be 0.626 ± 0.2; in assay [4] it was 0.455 ± 0.19. The transfection efficiency in assay [5] is 0.963 ± 0.18; in assay [6] it was 0.738 ± 0.18.

For `CC(C)(C)NC(=O)[C@@H]1C[C@@H]2CCCC[C@@H]2CN1C[C@@H](O)[C@H](Cc1ccccc1)NC(=O)[C@H](CC(N)=O)NC(=O)c1ccc2ccccc2n1` [Saquinavir mesylate], the results for the “Hoechst total cell count ratio” value in assay [1] and in assay [2] were 0.0637 ± 0.039 and 0.091 ± 0.042, respectively. For the same compound, the transgenic luciferase activity in assay [3] came out at 0.0312 ± 0.044; in assay [4], 0.00924 ± 0.0076. For the same compound, the transfection efficiency turned out to be 0.566 ± 0.7 in assay [5] and 0.345 ± 0.39 in assay [6].

Consider `CC[C@]1(O)C[C@@H]2CN(CCc3c([nH]c4ccccc34)[C@@](C(=O)OC)(c3cc4c(cc3OC)N(C)[C@H]3[C@@](O)(C(N)=O)[C@H](O)[C@]5(CC)C=CCN6CC[C@]43[C@@H]65)C2)C1` [Vindesine sulfate], for which the figures for the “Hoechst total cell count ratio” value in assay [1] and in assay [2] were 0.597 ± 0.049 and 0.439 ± 0.042, respectively. For the same compound, the transgenic luciferase activity in assay [3] is 0.533 ± 0.22; in assay [4], 1.61 ± 0.27. The transfection efficiency was found to be 0.847 ± 0.1 in assay [5] and 1.42 ± 0.18 in assay [6].

On to `CC(=O)NCCCCCCNC(C)=O` [Hexamethylenebisacetamide], for which the “Hoechst total cell count ratio” value in assay [1] stood at 1.45 ± 0.15; in assay [2] it was 1.09 ± 0.14. The results for the transgenic luciferase activity in assay [3] and in assay [4] were 0.79 ± 0.21 and 1.09 ± 0.18, respectively. For the same compound, the transfection efficiency is 1 ± 0.042 in assay [5] and 1.3 ± 0.28 in assay [6].

With `CC(C)[C@H]1CC[C@H](C(=O)N[C@H](Cc2ccccc2)C(=O)O)CC1` [Nateglinide], the “Hoechst total cell count ratio” value was determined as 1.23 ± 0.17 in assay [1] and 0.942 ± 0.13 in assay [2]. Besides, the transgenic luciferase activity in assay [3] amounted to 1.37 ± 0.2; in assay [4], 0.551 ± 0.084. Further, the transfection efficiency in assay [5] is 0.957 ± 0.24; in assay [6], 1.21 ± 0.08.

For `CN[C@H]1CC[C@@H](c2ccc(Cl)c(Cl)c2)c2ccccc21` [Sertraline hydrochloride], the figures for the “Hoechst total cell count ratio” value in assay [1] and in assay [2] were 0.099 ± 0.035 and 0.163 ± 0.059, respectively. In addition, the figures for the transgenic luciferase activity in assay [3] and in assay [4] were 0.00394 ± 0.00021 and 0.00273 ± 0.0043, respectively. Further, the transfection efficiency is 0.151 ± 0.14 in assay [5] and 0.0886 ± 0.0089 in assay [6].

Regarding `CNCCC(Oc1ccc(C(F)(F)F)cc1)c1ccccc1` (configuration not stated) [Fluoxetine hydrochloride], the “Hoechst total cell count ratio” value in assay [1] worked out at 0.0733 ± 0.021; in assay [2], 0.0593 ± 0.017. For the same compound, the transgenic luciferase activity was determined as 0.00187 ± 0.00021 in assay [3] and 0.000699 ± 0.00012 in assay [4]. The transfection efficiency came to 0.596 ± 0.71 in assay [5] and 0.384 ± 0.37 in assay [6].

Regarding `CCOC(=O)CCC(=O)O[C@H]1[C@H](O[C@@H]2[C@@H](C)[C@H](O[C@H]3C[C@@](C)(OC)[C@@H](O)[C@H](C)O3)[C@@H](C)C(=O)O[C@H](CC)[C@@](C)(O)[C@H](O)[C@@H](C)C(=O)[C@H](C)C[C@@]2(C)O)O[C@H](C)C[C@@H]1N(C)C` [Eryped], the “Hoechst total cell count ratio” value in assay [1] was determined as 1.61 ± 0.25; in assay [2], 1.42 ± 0.3. Besides, the transgenic luciferase activity stood at 1.37 ± 0.22 in assay [3] and 0.747 ± 0.055 in assay [4]. In addition, the transfection efficiency worked out at 0.831 ± 0.15 in assay [5] and 0.954 ± 0.12 in assay [6].

As for `CC[C@H](C)C(=O)O[C@H]1C[C@@H](C)C=C2C=C[C@H](C)[C@H](CC[C@@H]3C[C@@H](O)CC(=O)O3)[C@H]21` [Lovastatin], the “Hoechst total cell count ratio” value in assay [1] is 0.78 ± 0.075; in assay [2] it was 0.964 ± 0.073. The results for the transgenic luciferase activity in assay [3] and in assay [4] were 0.714 ± 0.38 and 0.58 ± 0.098, respectively. Also, the transfection efficiency in assay [5] was 1.31 ± 0.36; in assay [6], 1.05 ± 0.26.

`COCCOC(=O)C1=C(C)NC(C)=C(C(=O)OC(C)C)C1c1cccc([N+](=O)[O-])c1` (configuration not stated) [Nimodipine]: the “Hoechst total cell count ratio” value came to 1.14 ± 0.058 in assay [1] and 0.914 ± 0.15 in assay [2]. The transgenic luciferase activity in assay [3] turned out to be 0.327 ± 0.034; in assay [4] it was 0.815 ± 0.12. Moreover, the transfection efficiency in assay [5] came to 0.866 ± 0.14; in assay [6], 1.07 ± 0.2.

Take `CC(C(=O)O)c1ccc(-c2ccccc2)c(F)c1` (configuration not stated) [Flurbiprofen]: the entries for the “Hoechst total cell count ratio” value in assay [1] and in assay [2] were 1.44 ± 0.052 and 1.44 ± 0.26, respectively. Also, the transgenic luciferase activity in assay [3] came to 1.05 ± 0.58; in assay [4], 1.08 ± 0.13. Further, the transfection efficiency in assay [5] came to 0.798 ± 0.17; in assay [6] it was 0.766 ± 0.24.

In the case of `C[C@@H]1C[C@H]2[C@@H]3CCC4=CC(=O)C=C[C@]4(C)[C@@]3(F)[C@@H](O)C[C@]2(C)[C@H]1C(=O)CO` [Desoximetasone], the figures for the “Hoechst total cell count ratio” value in assay [1] and in assay [2] were 1.4 ± 0.038 and 0.976 ± 0.094, respectively. Also, the figures for the transgenic luciferase activity in assay [3] and in assay [4] were 7.48 ± 0.26 and 6.09 ± 0.76, respectively. Also, the transfection efficiency in assay [5] is 2.19 ± 0.39; in assay [6] it was 1.85 ± 0.23.

As to `OCCN1C[C@H](O)[C@@H](O)[C@H](O)[C@H]1CO` [Miglitol], the “Hoechst total cell count ratio” value in assay [1] stood at 1.1 ± 0.017; in assay [2], 1.07 ± 0.095. In addition, the transgenic luciferase activity is 1.19 ± 0.63 in assay [3] and 1.08 ± 0.58 in assay [4]. In addition, the transfection efficiency in assay [5] was determined as 1.38 ± 0.29; in assay [6], 1.07 ± 0.065.

Consider `CCc1nc(N)nc(N)c1-c1ccc(Cl)cc1` [Pyrimethamine], for which the “Hoechst total cell count ratio” value amounted to 1.6 ± 0.19 in assay [1] and 1.51 ± 0.39 in assay [2]. The transgenic luciferase activity was 1.01 ± 0.075 in assay [3] and 0.646 ± 0.093 in assay [4]. In addition, the transfection efficiency came to 0.963 ± 0.13 in assay [5] and 1.03 ± 0.09 in assay [6].
